Results on 61 compounds are retold here after the supplement of paper PMC9446081.

Screen size: about 39,000 compounds; about 220 (0.56%) showed activity. This is one part of the list.
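Further: static incubation at 37 °C against the wild-type strain, values averaged over two biological replicates.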

The subject of the assay is Escherichia coli K-12 BW25113. The experiment in a line: relative growth (OD600 normalised to plate interquartile mean) (fraction); higher = less growth inhibition, active = 0.2 or less. The settings on record: 50 µM; LB; incubation time: overnight (16-24 h).
On to `COCCOC(=O)N1C(=O)[C@@]2(c3cc(C#CC4=CCCCC4)ccc31)[C@H](c1ccc(OCCO)cc1)N1[C@H](c3ccccc3)[C@H](c3ccccc3)OC(=O)[C@H]1[C@@H]2C(=O)N1CCN(c2ncccn2)CC1`, for which the relative growth was inactive: 1.08.
For `CC(C)NC(=O)Nc1ccc2c(c1)C(=O)N([C@@H](C)CO)C[C@@H](C)[C@H](CN(C)Cc1ccc(Oc3ccccc3)cc1)O2` the value was inactive: 1.04; for `CCCN(C)C[C@@H]1OCCCC[C@@H](C)Oc2ccc(NS(=O)(=O)c3cn(C)cn3)cc2C(=O)N([C@@H](C)CO)C[C@@H]1C`, inactive: 1.01; for `O/N=C/c1ccccc1C(F)(F)F`, inactive: 0.992.
For `C[C@@H]1CCCCO[C@@H](CN(C)CC2CCCCC2)[C@@H](C)CN([C@H](C)CO)C(=O)c2cc(NS(=O)(=O)c3ccccc3)ccc2O1`, the relative growth was inactive: 0.975.
On to `COc1ccc(CN(C)C[C@@H]2Oc3c(NC(=O)Nc4cccc5ccccc45)cccc3C(=O)N([C@@H](C)CO)C[C@@H]2C)cc1`, for which the relative growth was inactive: 0.853.
As for `COCC(=O)N1C[C@H](C)[C@@H](OC)CN(C)C(=O)c2ccc(NC(=O)c3ccc(OC)cc3)cc2OC[C@@H]1C`, the relative growth is inactive: 0.968.
For `CO[C@@H]1CN(C)C(=O)c2cc(NS(=O)(=O)c3cn(C)cn3)ccc2OC[C@@H](C)N(CC2CC2)C[C@@H]1C` the value was inactive: 0.991; for `C[C@@H]1CN([C@H](C)CO)C(=O)c2cc(NC(=O)Nc3ccc(F)cc3)ccc2O[C@@H]1CN(C)S(C)(=O)=O`, inactive: 0.972; for `CN1CCN(C(=O)C[C@H]2C=C[C@H](NS(=O)(=O)c3cccc(F)c3)[C@H](CO)O2)CC1`, inactive: 0.99.
For `O=c1c(-c2ccc(O)cc2)coc2c(C3OC(CO)C(O)C(O)C3O)c(O)ccc12` (stereo unspecified) the value was inactive: 0.851; for `O=C1OCC=C[C@H]2O[C@@]34C=CCN(Cn5nnc6ccccc65)C(=O)[C@H]3N(CCO)C(=O)[C@@H]4[C@@H]12`, inactive: 1.03.
For the compound `CNC(=O)CO[C@H]1COC2(CCN(C(=O)c3ccn(C)n3)CC2)C1`, the relative growth was inactive: 1.02.
For `Cn1nc(Cn2ccnc2)c2c1CN(CCO)C2` the value was inactive: 1.01.
For `C[C@H]1CCCCO[C@@H](CN(C)C(=O)NC2CCCCC2)[C@@H](C)CN([C@@H](C)CO)C(=O)c2cc(NC(=O)Nc3cccc4ccccc34)ccc2O1` the value was inactive: 1.02; for `COc1ccc(S(=O)(=O)Nc2cccc3c2O[C@@H](CN(C)S(=O)(=O)c2ccc(C)cc2)[C@H](C)CN([C@@H](C)CO)C3=O)cc1`, inactive: 0.941; for `C[C@@H]1CN([C@H](C)CO)C(=O)c2cc(NC(=O)CCCCCC(=O)Nc3ccccc3N)ccc2O[C@H]1CN(C)C(=O)Nc1ccccc1`, inactive: 0.937.
In the case of `COc1ccc(S(=O)(=O)Nc2ccc3c(c2)C(=O)N([C@@H](C)CO)C[C@@H](C)[C@@H](CN(C)Cc2ccc(C(F)(F)F)cc2)OCCCC[C@H](C)O3)cc1`, the relative growth is inactive: 1.06.
Consider `CN1CCN(C(=O)C[C@@H]2C=C[C@@H](NS(=O)(=O)c3cccc(F)c3)[C@@H](CO)O2)CC1`, for which the relative growth is inactive: 0.98.
On to `CCCCCCCCCCCCCCCC(=O)OCC(O)CO` (stereo unspecified), for which the relative growth was inactive: 0.934.
For `COCC#Cc1ccc2c(c1)O[C@@H](CN(C)Cc1ccc3c(c1)OCO3)[C@@H](C)CN([C@@H](C)CO)S2(=O)=O` the value was inactive: 0.983.
For the compound `CCS(=O)(=O)N1CCOC[C@]2(CN(c3cnn(C)c3)C(=O)CO2)C1`, the relative growth is inactive: 1.03.
As to `C[C@@H]1CN([C@H](C)CO)C(=O)c2cc(NC(=O)Nc3ccc(C(F)(F)F)cc3)ccc2O[C@@H]1CN(C)C(=O)Nc1ccc(C(F)(F)F)cc1`, the relative growth is inactive: 1.
Then `COc1ccc(NC(=O)N[C@H]2CC[C@@H](CCNC(=O)CN3CCOCC3)O[C@@H]2CO)cc1`, with inactive: 0.986; and `C[C@H](CO)N1C[C@H](C)[C@H](CN(C)Cc2ccc(F)cc2)Oc2ncc(-c3cccc(C(F)(F)F)c3)cc2C1=O`, with inactive: 0.987.
With `COC(=O)[C@H](Cc1ccccc1)N1CC2=C[C@@H]([C@@H](O)CCn3cc(C(=O)NO)nn3)n3c(=O)n(C)c(=O)n3[C@@H]2[C@@H](C2CC2)O1`, the relative growth is inactive: 0.967.
With `C[C@H]1CN([C@@H](C)CO)C(=O)Cc2cc(NS(=O)(=O)c3ccc(F)cc3)ccc2O[C@H]1CN(C)C(=O)Nc1cccc2ccccc12`, the relative growth was inactive: 0.988.
`COc1ccc(CN(C)C[C@@H]2Oc3c(NS(C)(=O)=O)cccc3C(=O)N([C@H](C)CO)C[C@H]2C)cc1`: the relative growth is inactive: 0.997.
Then `NCC[C@H]1CC[C@@H](NC(=O)Nc2ccc(F)cc2)[C@@H](CO)O1`, with inactive: 0.988; and `COCC(=O)N1C[C@H](C)[C@H](OC)CN(C)C(=O)c2ccc(NC(=O)c3ccc(OC)cc3)cc2OC[C@H]1C`, with inactive: 0.984; and `C=CCC[C@@H](Cc1ccc(F)cc1)C(=O)OC[C@H](Cc1c[nH]c2ccccc12)NC(=O)[C@@H](CC=C)CC(=O)N[C@H](CO)Cc1ccccc1`, with inactive: 1.06.
`C[C@H]1CN([C@@H](C)CO)S(=O)(=O)c2ccc(C#Cc3ccccc3)cc2O[C@@H]1CN(C)S(=O)(=O)c1ccccc1F`: the relative growth was inactive: 1.02.
As for `CN(C)CCCNC(=O)C[C@@H]1CC[C@@H]2[C@H](COC[C@H](O)CN2C(=O)Nc2cc(Cl)cc(Cl)c2)O1`, the relative growth was inactive: 0.987.
Then `C[C@@H]1CN([C@@H](C)CO)C(=O)c2cccc(NC(=O)Nc3ccc(F)cc3)c2O[C@H]1CN(C)Cc1ccc(Cl)c(Cl)c1`, with inactive: 1; and `CNC[C@@H]1OCCCC[C@H](C)Oc2ccc(NC(=O)c3ccncc3)cc2C(=O)N([C@@H](C)CO)C[C@H]1C`, with inactive: 1.03.
`Cc1noc(C)c1NC(=O)N(C)C[C@@H]1OCCCC[C@@H](C)Oc2ccc(NC(=O)CCC(F)(F)F)cc2C(=O)N([C@H](C)CO)C[C@@H]1C`: the relative growth was inactive: 0.957.
Then `C[C@@H]1CN([C@H](C)CO)C(=O)c2cc(NC(=O)C3CCCCC3)ccc2O[C@@H](C)CCCCO[C@H]1CN(C)Cc1ccc(C(F)(F)F)cc1`, with inactive: 0.984; and `COc1ccc(CN(C)C[C@@H]2OCCCC[C@@H](C)Oc3ccc(NC(=O)NC4CCCCC4)cc3C(=O)N([C@H](C)CO)C[C@@H]2C)cc1`, with inactive: 0.997; and `COc1cccc(-c2cn(CC[C@@H]3CC[C@H](NC(=O)CN(C)C)[C@H](CO)O3)nn2)c1`, with inactive: 0.987.
With `CN(C)C(=O)N1CCNCC1`, the relative growth was inactive: 1.02.
Then `C[C@@H]1CN([C@H](C)CO)C(=O)c2cc(NC(=O)Nc3cccc4ccccc34)ccc2O[C@@H]1CN(C)S(=O)(=O)c1cccs1`, with inactive: 1.03; and `Cc1ccc(S(=O)(=O)N(C)C[C@@H]2Oc3ccc(NC(=O)Nc4ccc(C(F)(F)F)cc4)cc3CC(=O)N([C@@H](C)CO)C[C@@H]2C)cc1`, with inactive: 1.03; and `C[C@@H]1CCCCO[C@H](CN(C)Cc2ccc(Cl)c(Cl)c2)[C@@H](C)CN([C@H](C)CO)C(=O)c2cc(NC(=O)CCC(F)(F)F)ccc2O1`, with inactive: 1.01.
Turning to `O.O=C([O-])CC(O)(CC(=O)[O-])C(=O)[O-].[Li+].[Li+].[Li+]`, the relative growth was inactive: 1.17.
Then `Cc1ccc(S(=O)(=O)Nc2ccc3c(c2)C(=O)N([C@@H](C)CO)C[C@@H](C)[C@@H](CN(C)C(=O)Nc2cccc4ccccc24)OCCCC[C@@H](C)O3)cc1`, with inactive: 0.998.
For `CC(C)NC(=O)N(C)C[C@@H]1Oc2ccc(NC(=O)CCN3CCOCC3)cc2CC(=O)N([C@H](C)CO)C[C@@H]1C` the value was inactive: 0.998.
Then `CCCCn1c(-c2ccccc2)nc(-c2ccccc2)c1CN(Cc1ccc2c(c1)OCO2)Cc1ccc2c(c1)OCO2`, with inactive: 1.08.
For `CC(C)NC(=O)N(C)C[C@H]1Oc2ccc(NC(=O)Nc3ccc4c(c3)OCO4)cc2CC(=O)N([C@@H](C)CO)C[C@@H]1C`, the relative growth is inactive: 0.919.
On to `C[C@@H]1CN([C@@H](C)CO)C(=O)c2cc(C#Cc3ccncc3)cnc2O[C@H]1CN(C)S(=O)(=O)c1ccccc1F`, for which the relative growth is inactive: 1.
For `C[C@H]1CN([C@@H](C)CO)C(=O)c2cc(NC(=O)Nc3cccc4ccccc34)ccc2O[C@H]1CN(C)C(=O)NC1CCCCC1` the value was inactive: 0.982; for `NC(=O)c1ccco1`, inactive: 0.994.
`O=C(C[C@@H]1C=C[C@@H](NS(=O)(=O)c2ccc(F)cc2)[C@H](CO)O1)N1CCC(Cc2ccccc2)CC1`: the relative growth is inactive: 1.01.
Then `C[C@H]1CN([C@@H](C)CO)C(=O)c2cc(C#Cc3ccccc3F)cnc2O[C@H]1CN(C)C(=O)Cc1ccncc1`, with inactive: 0.983; and `C[C@@H]1CN([C@@H](C)CO)C(=O)c2cc(NS(=O)(=O)c3cn(C)cn3)ccc2O[C@@H](C)CCCCO[C@H]1CN(C)CC1CC1`, with inactive: 0.986; and `COc1ccc(NC(=O)N(C)C[C@H]2Oc3c(NC(=O)C4CCOCC4)cccc3C(=O)N([C@H](C)CO)C[C@H]2C)cc1`, with inactive: 0.988.
For `C[C@@H]1CN([C@H](C)CO)C(=O)c2cc(NC(=O)c3ccncc3)ccc2O[C@@H](C)CCCCO[C@@H]1CN(C)S(=O)(=O)c1ccc(Cl)cc1` the value was inactive: 0.997; for `O=C1c2c(O)cccc2Cc2cccc(O)c21`, inactive: 0.882.
For `C[C@@H]1CN([C@@H](C)CO)C(=O)c2cccc(NC(=O)CCCCCC(=O)Nc3ccccc3N)c2O[C@H]1CN(C)Cc1ccc(Oc2ccccc2)cc1` the value was inactive: 0.912.
`O=c1[nH]c2ccccc2n2cnnc12`: the relative growth is inactive: 0.952.
For `Cc1ccc(S(=O)(=O)N(C)C[C@H]2Oc3c(NC(=O)Nc4cccc5ccccc45)cccc3C(=O)N([C@@H](C)CO)C[C@@H]2C)cc1` the value was inactive: 1.03.
As to `C[C@@H]1CN([C@H](C)CO)C(=O)c2cc(NS(=O)(=O)c3cn(C)cn3)ccc2O[C@@H](C)CCCCO[C@H]1CN(C)S(=O)(=O)c1ccccc1`, the relative growth is inactive: 0.984.
